Measured values as given in article PMC4336329 (PLoS ONE, 2015).
Among all 310,000 compounds or so, about 14,000 (4.5%) showed an effect of 50% or more. Effects have a minus sign here. The list shows a part of the results.

Target: human ether-à-go-go-related gene (hERG) potassium channel (human, UniProt Q12809)
Assay: primary screen, population patch clamp on CHO cells stably expressing hERG
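Note: peak tail current of the secondary pulse compared with the same well before compound.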

human ether-à-go-go-related gene (hERG) potassium channel, sequence (Q12809 whole entry, looked up): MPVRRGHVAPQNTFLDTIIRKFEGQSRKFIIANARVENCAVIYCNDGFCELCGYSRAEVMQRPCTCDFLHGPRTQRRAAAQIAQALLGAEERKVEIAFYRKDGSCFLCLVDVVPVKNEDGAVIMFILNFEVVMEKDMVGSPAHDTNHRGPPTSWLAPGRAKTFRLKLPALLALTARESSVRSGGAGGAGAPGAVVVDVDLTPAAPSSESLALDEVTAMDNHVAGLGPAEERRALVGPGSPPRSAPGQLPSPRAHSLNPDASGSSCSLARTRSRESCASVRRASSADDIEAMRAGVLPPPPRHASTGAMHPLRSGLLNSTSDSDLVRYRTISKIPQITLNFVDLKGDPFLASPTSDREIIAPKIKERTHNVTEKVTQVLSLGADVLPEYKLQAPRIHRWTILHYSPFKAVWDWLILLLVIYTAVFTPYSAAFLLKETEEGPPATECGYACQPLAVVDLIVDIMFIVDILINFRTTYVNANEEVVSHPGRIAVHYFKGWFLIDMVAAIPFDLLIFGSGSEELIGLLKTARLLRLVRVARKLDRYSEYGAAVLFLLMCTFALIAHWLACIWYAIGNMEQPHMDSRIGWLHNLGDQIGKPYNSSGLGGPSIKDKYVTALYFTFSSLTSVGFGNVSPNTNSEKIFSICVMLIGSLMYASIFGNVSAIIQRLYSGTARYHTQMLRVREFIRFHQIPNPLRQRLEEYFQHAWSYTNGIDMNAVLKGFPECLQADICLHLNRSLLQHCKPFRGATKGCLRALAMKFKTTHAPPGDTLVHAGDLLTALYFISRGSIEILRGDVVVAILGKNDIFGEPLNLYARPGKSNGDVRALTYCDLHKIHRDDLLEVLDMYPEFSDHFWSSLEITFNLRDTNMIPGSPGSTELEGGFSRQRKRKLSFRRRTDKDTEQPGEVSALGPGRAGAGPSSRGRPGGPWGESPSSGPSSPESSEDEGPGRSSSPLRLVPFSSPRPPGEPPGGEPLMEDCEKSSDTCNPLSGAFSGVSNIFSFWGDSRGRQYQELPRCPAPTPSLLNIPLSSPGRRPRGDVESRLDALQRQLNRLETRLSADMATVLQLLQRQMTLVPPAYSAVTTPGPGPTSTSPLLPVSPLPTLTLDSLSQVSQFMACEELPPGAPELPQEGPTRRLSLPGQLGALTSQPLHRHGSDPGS

| Compound | hERG current change (%, negative = inhibition) at 10uM |
| --- | --- |
| Cc1nc(N2CCC(C)CC2)c2c(C)c(C(=O)Nc3ccc(C(F)(F)F)cc3)sc2n1 | 21.8% |
| O=C(NCCc1ccc(Cl)cc1)C1CCN(S(=O)(=O)c2cccc3nonc23)CC1 | -11.5% |
| CC1CCCCC1NC(=S)NC(=O)c1ccccc1Br (stereo not shown) | 1.8% |
| COC(=O)c1cc(OC(=O)CCc2ccc(OC)c(OC)c2)cc(C(=O)OC)c1 | 10.6% |
| COC(=O)c1ccc(N2CCCCC2)c(NC(=O)c2ccco2)c1 | -45.8% |
| O=S(=O)(c1cccs1)N1CCN(c2ncccn2)CC1 | -23.2% |
| CC(=O)c1ccc2c3c(cccc13)CC2 | 2.96% |
| Cc1ccc(S(=O)(=O)c2nc(-c3cccs3)oc2SCC(N)=O)cc1 | 17.1% |
| CCOC(=O)Cc1nnc(NC(=O)CC)s1 | 0.0452% |
| Br.C=CCn1c(=N)n(CC(=O)O)c2ccccc21 | -6.07% |
| CC(/C=C/c1ccccc1)=N\NC(=O)Cn1cncn1 | 5.96% |
| O=C(NCc1cccc(Cl)c1)c1cccc(C(F)(F)F)c1 | -0.522% |
| Cc1ccc(NC(=O)CNS(=O)(=O)c2ccc(F)cc2)cc1C | 21.9% |
| CCOCCCNC(=O)CCn1ccc2cc(S(=O)(=O)N3CCCC3)ccc21 | 13.8% |
| O=C(COC(=O)/C=C/c1cccc(Cl)c1)Nc1cccc(S(=O)(=O)NC2=NCCC2)c1 | -45.4% |
| C/C(=N/NC(=O)c1cccs1)c1c(C)[nH]n(-c2nc3ccccc3s2)c1=O | 7.38% |
| O=[N+]([O-])c1ccc(N2CCN(CCO)CC2)c2ncccc12 | -45.4% |
| Cc1cc(C(=O)NCCCN2CCOCC2)n(-c2ccccc2)n1 | 19.3% |
| O=CC1=C(c2ccccc2)Oc2ccccc2O1 | 6.03% |
| CCOC(=O)C1(Cc2cccc(OC)c2)CCCN(Cc2nccn2CC)C1 (stereo not shown) | -30.8% |
| COc1ccc2c(c1OC)C(=O)OC2Nc1ccc(S(=O)(=O)N=C(N)N)cc1 (stereo not shown) | 16.4% |
| CCOC(=O)C1=C(c2ccccc2)N(C)C(=O)NC1c1ccc(OC(F)F)c(OC)c1 (stereo not shown) | -22.6% |

| Compound | hERG current change (%, negative = inhibition) at 10uM |
| --- | --- |
| CCCCC(=O)NS(=O)(=O)c1ccc(N=NN2CCCCC2)cc1 | 5.3% |
| CN(C)CCn1ccc(O)c(Cc2ccc(Cl)cc2)c1=O | 4.57% |
| CNC(=S)Nc1cc2oc3ccccc3c2cc1OC | 8.7% |
| COc1cccc(CN(C)C(=O)CCN(c2ccccc2)S(=O)(=O)c2ccc(C)cc2)c1OC | -30.4% |
| Cc1ccc2nc(NC(=O)C3CCN(C(=O)c4ccc(F)cc4)CC3)sc2c1 | -20.1% |
| Cl.Clc1ccc2nsnc2c1NC1=NCCN1 | -3% |
| COc1ccc(/C(C)=N/NC(=O)CNC(=O)c2ccncc2)cc1 | 19.7% |
| COc1ccccc1C(=O)Nc1nc2ccccc2[nH]1 | 12.2% |
| OCCN1CCN(Cc2cc(Br)cc(Br)c2O)CC1 | -60.8% |
| COc1cc(C(=O)N(C)C2CCCN(Cc3ccccc3F)C2)cc(OC)c1OC (stereo not shown) | 8.36% |
| CC(C)c1nc(SCC(=O)NC2CCCC2)c2c(=O)n(C)c(=O)n(C)c2n1 | 9.6% |
| COc1ccccc1OCC(=O)NCCCn1ccnc1 | 7.02% |
| Cc1cccc(NC(=O)c2cc(-c3cc(C)cc(C)c3O)n[nH]2)c1 | 31.2% |
| O=S(=O)(O/N=C1\CCCc2ccccc21)c1ccc(Cl)cc1 | 4.69% |
| Cc1cc(N/N=C/c2ccc(N(C)C)cc2)nc(NCc2ccccc2)n1 | 9.69% |
| COc1ccc(S(=O)(=O)N2CCCCC2)cc1C(C)C | -1.61% |
| Cc1cccc(C)c1NC(=O)CNC(=O)C1COc2ccccc2O1 (stereo not shown) | 8.47% |
| Cc1ccccc1N1C(=O)C(Oc2ccc(Cl)cc2)C1CNCC1CCCO1.Cl (stereo not shown) | -18% |
| Cc1cccnc1NC(=O)CCn1c(=O)oc2ccccc21 | 2.77% |
| COc1ccc(C(=O)Nn2c(C)nc3ccccc3c2=O)cc1 | 1.97% |
| Cc1ccc(C)c(C(=O)N(Cc2nc(-c3ccc(Cl)cc3)no2)C(C)C)c1 | -1.19% |
| O=C(COC(=O)CCN1C(=O)C2CC=CCC2C1=O)NCCc1ccc(F)cc1 (stereo not shown) | -14.1% |

| Compound | hERG current change (%, negative = inhibition) at 10uM |
| --- | --- |
| CCN(CC)C(=O)CSc1nc2ncc(Cl)cc2[nH]1 | 3.81% |
| Cc1cc(N2CCN(C)CC2)nc2ccc(NC(=S)N3CCN(c4ccccn4)CC3)cc12 | -27.7% |
| O=C(Nc1ccc(-c2nc3cccnc3s2)cc1)c1ccc(Cl)nc1 | 2.49% |
| CCOC(=O)N1CCN(C(=O)C2CCC(CNS(=O)(=O)c3ccc(Cl)cc3)CC2)CC1 (stereo not shown) | -10.1% |
| CCc1cc2c(-c3ccccc3)cc(=O)oc2cc1OCC(C)=O | -6.98% |
| COC(=O)c1nc(-c2ccccc2)oc1N1CCOCC1 | 13.8% |
| Cc1ccc(C)c(CNS(=O)(=O)c2c(C)[nH]c(C)c2C(=O)N2CCCC2)c1 | -47.1% |
| COc1cc(SC)ccc1C(=O)Nc1nc(C)cc(C)n1 | 5.75% |
| O=C(O)c1ccc(CSc2nc3ccc(NC(=O)c4ccccc4C(=O)O)cc3s2)cc1 | 20.8% |
| CCCC(=O)N(CCN1CCOCC1)c1nc2ccc(OCC)cc2s1.Cl | -29.9% |
| CCc1cc(=O)oc2cc(OCC(=O)NCCCn3ccnc3)c(Cl)cc12 | -28.5% |
| O=S(=O)(Nc1ccc(S(=O)(=O)Nc2nccs2)cc1)c1ccc(Br)cc1 | 14.5% |
| COc1ccc(CN2C3CCC2CC(NC(=O)c2cc(OC)c(OC)c(OC)c2)C3)cc1 (stereo not shown) | -31.6% |
| CCOC(=O)/C=C1\CC(=O)Nc2cc(C)c(C)cc2N1 | -4.79% |
| Cc1cc(-c2ccccc2)n(-c2cc(N/N=C/c3ccccc3O)ncn2)n1 | -10.5% |
| CN1C(=O)[C@H]2[C@@H](C3CC3)N3C(=O)CN(Cc4ccc(-c5ccccc5)cc4)C(=O)[C@@]3(C)[C@H]2C1=O | -43.2% |
| CCOC(=O)N1CCN(C(=O)CCCCn2c(=S)[nH]c3ccsc3c2=O)CC1 | -0.808% |
| C=CCN(C(=O)Nc1ccc(Cl)cc1)C1CC(=O)N(c2ccc(OC)cc2)C1=O (stereo not shown) | -14.8% |
| CCOc1ccc(C(=O)CCc2nc3ccccc3s2)cc1 | -31.8% |
| CC(C)(C)NC(=O)C1Cc2ccccc2CN1S(=O)(=O)c1ccc(F)cc1 (stereo not shown) | -0.712% |
| COCCOC(=O)C1=C(C)NC(=O)NC1c1cn(-c2ccccc2)nc1-c1cccs1 (stereo not shown) | 1.15% |
| C#CCOCCOCCOCCNc1nc(N2CCN(C(=O)[C@H]([C@@H](C)O)n3cc(CCCC[NH3+])nn3)CC2)nc(N2CCN(C(=O)[C@H](CCCC[NH3+])n3cc(CCC(=O)O)nn3)CC2)n1.[Cl-] | 14.3% |

| Compound | hERG current change (%, negative = inhibition) at 10uM |
| --- | --- |
| CC(C)C(NC(=O)C1CCCCC1)C(=O)NCCc1ccccc1 (stereo not shown) | 3.14% |
| CN1CCN(CC(=O)Nc2ccccc2C(F)(F)F)CC1.O=C(O)C(=O)O | 22.2% |
| O=C(NNc1cc(Cl)cc(Cl)c1)c1c(F)cccc1Cl | 8.39% |
| CCN(Cc1ccccc1)C(=O)c1cc2c(=O)oc3ccc(C)cc3c2s1 | 6.76% |
| COc1ccc(Br)cc1CN(C)CC(O)COc1ccc(Br)cc1 (stereo not shown) | -74.6% |
| Cc1ccc(C(=O)O/N=C/c2c(N3CCOCC3)n(C)c3ccccc23)cc1 | 2.86% |
| O=C(Nc1ccccc1N1CCCC1)c1ccc(Cl)cc1Cl | 8.88% |
| CCCc1nc2sc3c(SCC(=O)NCc4ccco4)ncnc3c2c2c1CCC2 | 7.19% |
| CCc1ccc(C(=O)Nc2nc(C)cs2)s1 | 4.04% |
| Brc1ccccc1CN1CCC(N2CCCCC2)CC1 | -24.6% |
| CC1CN(C(=O)N2c3ccccc3Sc3ccccc32)CC(C)O1 (stereo not shown) | 4.07% |
| O=C(CCc1c[nH]c2ccccc12)NCc1cccc(Cl)c1 | -13.8% |
| COc1cccc(NC(=S)NC(=O)Cc2ccc(Cl)cc2)c1 | 19.8% |
| O=C(Nc1ccc(O)cc1C(=O)O)c1cccc(Br)c1 | 19.6% |
| CC(C)(C)n1nnnc1C(c1ccccc1)N1CCc2ccccc2C1 (stereo not shown) | -0.455% |
| CCOc1ccc(S(=O)(=O)N2CCC(C(=O)NCc3ccccc3CN3CCCC3)CC2)cc1 | -64.3% |
| Cc1ccc(S(=O)(=O)N(C)/N=C/c2ccc(C(=O)O)cc2)cc1 | -7.51% |
| O=C(N/N=C/c1ccc(N2CCOCC2)cc1)c1ccncc1 | 2.18% |
| O=C(CN1C(=O)NC2(CCOc3ccccc32)C1=O)NCC(F)(F)F (stereo not shown) | 1.08% |
| COc1ccc2c(C=O)c[nH]c2c1 | 2.04% |
| CCN1C(=O)c2ccc(C(=O)Nc3cccc(C(=O)O)c3)cc2C1=O | 21% |
| C=C(C)[C@@]12OC3(c4ccccc4)O[C@@H]1C1[C@@H]4O[C@]4(CO)[C@@H](O)[C@]4(O)C(=O)C(C)=C[C@H]4[C@@]1(O3)[C@H](C)[C@H]2OC(=O)/C=C/C=C/c1ccccc1 (stereo partly shown) | 11.9% |
